Results taken from the supplement of paper PMC9151546.
Most values come without repeats; read them as rough.

Experiments:
CHO-K1 [1] = test: relative survival (nuclei to bead ratio vs DMSO control) (% of vehicle control); higher = more surviving cells
Experimental: (§1)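 Flow-cytometric in vitro micronucleus assay (Litron MicroFlow) in CHO-K1 cells in 96-well plates, 19 concentrations (4.5-200 µM, n=1 per concentration). Without S9, cells were exposed for 24 h and sampled at 48 h. With Aroclor 1254-induced rat liver S9, cells were exposed for 3-4 h and sampled at 27-28 h. Read-outs are %MN and %hypodiploid nuclei relative to nucleated events, and relative survival as the nuclei-to-bead ratio versus the 1% DMSO vehicle control (x100).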

CHO-K1 [2] = test: hypodiploid nuclei frequency (% of nucleated events); higher = more hypodiploid events (aneugenic)
Experimental: as §1

CHO-K1 [3] = test: micronucleus frequency (% of nucleated events); higher = more micronuclei (genotoxic)
[4] = concentration: 4.48 (µM), S9 metabolic activation: with S9, exposure time: 3-4 hours
[5] = concentration: 4.48 (µM), S9 metabolic activation: without S9, exposure time: 24 hours
[6] = concentration: 5.6 (µM), S9 metabolic activation: with S9, exposure time: 3-4 hours
[7] = concentration: 5.6 (µM), S9 metabolic activation: without S9, exposure time: 24 hours
[8] = concentration: 7 (µM), S9 metabolic activation: with S9, exposure time: 3-4 hours
[9] = concentration: 7 (µM), S9 metabolic activation: without S9, exposure time: 24 hours
[10] = concentration: 8.75 (µM), S9 metabolic activation: with S9, exposure time: 3-4 hours
[11] = concentration: 8.75 (µM), S9 metabolic activation: without S9, exposure time: 24 hours
[12] = concentration: 10.9 (µM), S9 metabolic activation: with S9, exposure time: 3-4 hours
[13] = concentration: 10.9 (µM), S9 metabolic activation: without S9, exposure time: 24 hours
[14] = concentration: 13.7 (µM), S9 metabolic activation: with S9, exposure time: 3-4 hours
[15] = concentration: 13.7 (µM), S9 metabolic activation: without S9, exposure time: 24 hours
[16] = concentration: 17.1 (µM), S9 metabolic activation: with S9, exposure time: 3-4 hours
[17] = concentration: 17.1 (µM), S9 metabolic activation: without S9, exposure time: 24 hours
[18] = concentration: 21.4 (µM), S9 metabolic activation: with S9, exposure time: 3-4 hours
[19] = concentration: 21.4 (µM), S9 metabolic activation: without S9, exposure time: 24 hours
[20] = concentration: 26.7 (µM), S9 metabolic activation: with S9, exposure time: 3-4 hours
[21] = concentration: 26.7 (µM), S9 metabolic activation: without S9, exposure time: 24 hours
[22] = concentration: 33.4 (µM), S9 metabolic activation: with S9, exposure time: 3-4 hours
[23] = concentration: 33.4 (µM), S9 metabolic activation: without S9, exposure time: 24 hours
[24] = concentration: 41.7 (µM), S9 metabolic activation: with S9, exposure time: 3-4 hours
[25] = concentration: 41.7 (µM), S9 metabolic activation: without S9, exposure time: 24 hours
[26] = concentration: 52.2 (µM), S9 metabolic activation: with S9, exposure time: 3-4 hours
[27] = concentration: 52.2 (µM), S9 metabolic activation: without S9, exposure time: 24 hours
[28] = concentration: 65.2 (µM), S9 metabolic activation: with S9, exposure time: 3-4 hours
[29] = concentration: 65.2 (µM), S9 metabolic activation: without S9, exposure time: 24 hours
[30] = concentration: 81.5 (µM), S9 metabolic activation: with S9, exposure time: 3-4 hours
[31] = concentration: 81.5 (µM), S9 metabolic activation: without S9, exposure time: 24 hours
[32] = concentration: 102 (µM), S9 metabolic activation: with S9, exposure time: 3-4 hours
[33] = concentration: 102 (µM), S9 metabolic activation: without S9, exposure time: 24 hours
[34] = concentration: 127 (µM), S9 metabolic activation: with S9, exposure time: 3-4 hours
[35] = concentration: 127 (µM), S9 metabolic activation: without S9, exposure time: 24 hours
[36] = concentration: 159 (µM), S9 metabolic activation: with S9, exposure time: 3-4 hours
[37] = concentration: 159 (µM), S9 metabolic activation: without S9, exposure time: 24 hours
[38] = concentration: 199 (µM), S9 metabolic activation: with S9, exposure time: 3-4 hours
[39] = concentration: 199 (µM), S9 metabolic activation: without S9, exposure time: 24 hours
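Wherever hypodiploid nuclei frequency (% of nucleated events) is given: hypodiploid nuclei gated on a flow cytometer with 488 nm excitation after SYTOX Green staining, cultures at 37 °C, positive controls vinblastine without S9 and cyclophosphamide with S9.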
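Wherever micronucleus frequency (% of nucleated events) is given: cells lysed with nuclei stained by SYTOX Green, then micronucleus-gated events counted against nucleated events by flow cytometry with 488 nm excitation.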
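Wherever relative survival (nuclei to bead ratio vs DMSO control) is given: Lysed-cell nuclei stained with SYTOX Green and counted against counting beads by flow cytometry at 488 nm excitation, with vinblastine (no S9) and cyclophosphamide (plus S9) as positive controls.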

Work on Clc1ccc(Cl)c(Cl)c1 [1,2,4-Trichlorobenzene] yielded a relative survival (CHO-K1 [1]; [4]) of 110, a relative survival (CHO-K1 [1]; [5]) of 112 and a relative survival (CHO-K1 [1]; [6]) of 116. The relative survival (CHO-K1 [1]; [7]) was 119, the relative survival (CHO-K1 [1]; [8]) was 102 and the relative survival (CHO-K1 [1]; [9]) was 120. The relative survival (CHO-K1 [1]; [10]) was 91, the relative survival (CHO-K1 [1]; [11]) was 113 and the relative survival (CHO-K1 [1]; [12]) was 78.5. It also gave a relative survival (CHO-K1 [1]; [13]) of 148, a relative survival (CHO-K1 [1]; [14]) of 118 and a relative survival (CHO-K1 [1]; [15]) of 114. It also gave a relative survival (CHO-K1 [1]; [16]) of 91.4, a relative survival (CHO-K1 [1]; [17]) of 118 and a relative survival (CHO-K1 [1]; [18]) of 95.8. For the same compound, the relative survival (CHO-K1 [1]; [19]) was 112, the relative survival (CHO-K1 [1]; [20]) was 108 and the relative survival (CHO-K1 [1]; [21]) was 96.2. For the same compound, the relative survival (CHO-K1 [1]; [22]) was 91.7, the relative survival (CHO-K1 [1]; [23]) was 103 and the relative survival (CHO-K1 [1]; [24]) was 84.8. The relative survival (CHO-K1 [1]; [25]) was 84.4, the relative survival (CHO-K1 [1]; [26]) was 80.8 and the relative survival (CHO-K1 [1]; [27]) was 79. For the same compound, the relative survival (CHO-K1 [1]; [28]) was 102, the relative survival (CHO-K1 [1]; [29]) was 91.6 and the relative survival (CHO-K1 [1]; [30]) was 74.1. It also gave a relative survival (CHO-K1 [1]; [31]) of 81.6, a relative survival (CHO-K1 [1]; [32]) of 78.1 and a relative survival (CHO-K1 [1]; [33]) of 80.1. The relative survival (CHO-K1 [1]; [34]) was 78.4, the relative survival (CHO-K1 [1]; [35]) was 75.2 and the relative survival (CHO-K1 [1]; [36]) was 80.7. It also gave a relative survival (CHO-K1 [1]; [37]) of 85.8, a relative survival (CHO-K1 [1]; [38]) of 96 and a relative survival (CHO-K1 [1]; [39]) of 64.1. It also gave a hypodiploid nuclei frequency (CHO-K1 [2]; [4]) of 0.2%, a hypodiploid nuclei frequency (CHO-K1 [2]; [5]) of 0.44% and a hypodiploid nuclei frequency (CHO-K1 [2]; [6]) of 0.24%. For the same compound, the hypodiploid nuclei frequency (CHO-K1 [2]; [7]) was 0.6%, the hypodiploid nuclei frequency (CHO-K1 [2]; [8]) was 0.32% and the hypodiploid nuclei frequency (CHO-K1 [2]; [9]) was 0.78%. For the same compound, the hypodiploid nuclei frequency (CHO-K1 [2]; [10]) was 0.12%, the hypodiploid nuclei frequency (CHO-K1 [2]; [11]) was 0.52% and the hypodiploid nuclei frequency (CHO-K1 [2]; [12]) was 0.2%. For the same compound, the hypodiploid nuclei frequency (CHO-K1 [2]; [13]) was 0.54%, the hypodiploid nuclei frequency (CHO-K1 [2]; [14]) was 0.18% and the hypodiploid nuclei frequency (CHO-K1 [2]; [15]) was 0.5%. For the same compound, the hypodiploid nuclei frequency (CHO-K1 [2]; [16]) was 0.14%, the hypodiploid nuclei frequency (CHO-K1 [2]; [17]) was 0.56% and the hypodiploid nuclei frequency (CHO-K1 [2]; [18]) was 0.26%. It also gave a hypodiploid nuclei frequency (CHO-K1 [2]; [19]) of 0.7%, a hypodiploid nuclei frequency (CHO-K1 [2]; [20]) of 0.3% and a hypodiploid nuclei frequency (CHO-K1 [2]; [21]) of 0.58%. The hypodiploid nuclei frequency (CHO-K1 [2]; [22]) was 0.24%, the hypodiploid nuclei frequency (CHO-K1 [2]; [23]) was 0.56% and the hypodiploid nuclei frequency (CHO-K1 [2]; [24]) was 0.14%. The hypodiploid nuclei frequency (CHO-K1 [2]; [25]) was 0.74%, the hypodiploid nuclei frequency (CHO-K1 [2]; [26]) was 0.18% and the hypodiploid nuclei frequency (CHO-K1 [2]; [27]) was 0.76%. The hypodiploid nuclei frequency (CHO-K1 [2]; [28]) was 0.24%, the hypodiploid nuclei frequency (CHO-K1 [2]; [29]) was 1.02% and the hypodiploid nuclei frequency (CHO-K1 [2]; [30]) was 0.1%. The hypodiploid nuclei frequency (CHO-K1 [2]; [31]) was 0.68%, the hypodiploid nuclei frequency (CHO-K1 [2]; [32]) was 0.32% and the hypodiploid nuclei frequency (CHO-K1 [2]; [33]) was 0.76%. The hypodiploid nuclei frequency (CHO-K1 [2]; [34]) was 0.24%, the hypodiploid nuclei frequency (CHO-K1 [2]; [35]) was 0.9% and the hypodiploid nuclei frequency (CHO-K1 [2]; [36]) was 0.24%. It also gave a hypodiploid nuclei frequency (CHO-K1 [2]; [37]) of 1.26%, a hypodiploid nuclei frequency (CHO-K1 [2]; [38]) of 0.16% and a hypodiploid nuclei frequency (CHO-K1 [2]; [39]) of 1.4%. It also gave a micronucleus frequency (CHO-K1 [3]; [4]) of 0.96%, a micronucleus frequency (CHO-K1 [3]; [5]) of 1.62% and a micronucleus frequency (CHO-K1 [3]; [6]) of 0.8%. For the same compound, the micronucleus frequency (CHO-K1 [3]; [7]) was 1.7%, the micronucleus frequency (CHO-K1 [3]; [8]) was 1.22% and the micronucleus frequency (CHO-K1 [3]; [9]) was 1.52%. It also gave a micronucleus frequency (CHO-K1 [3]; [10]) of 0.84%, a micronucleus frequency (CHO-K1 [3]; [11]) of 1.68% and a micronucleus frequency (CHO-K1 [3]; [12]) of 0.87%. It also gave a micronucleus frequency (CHO-K1 [3]; [13]) of 1.14%, a micronucleus frequency (CHO-K1 [3]; [14]) of 1% and a micronucleus frequency (CHO-K1 [3]; [15]) of 1.28%. For the same compound, the micronucleus frequency (CHO-K1 [3]; [16]) was 1.32%, the micronucleus frequency (CHO-K1 [3]; [17]) was 1.68% and the micronucleus frequency (CHO-K1 [3]; [18]) was 1.3%. The micronucleus frequency (CHO-K1 [3]; [19]) was 1.78%, the micronucleus frequency (CHO-K1 [3]; [20]) was 0.94% and the micronucleus frequency (CHO-K1 [3]; [21]) was 0.94%. It also gave a micronucleus frequency (CHO-K1 [3]; [22]) of 1.1%, a micronucleus frequency (CHO-K1 [3]; [23]) of 1.96% and a micronucleus frequency (CHO-K1 [3]; [24]) of 1.42%. The micronucleus frequency (CHO-K1 [3]; [25]) was 1.84%, the micronucleus frequency (CHO-K1 [3]; [26]) was 1.66% and the micronucleus frequency (CHO-K1 [3]; [27]) was 1.76%. It also gave a micronucleus frequency (CHO-K1 [3]; [28]) of 1.2%, a micronucleus frequency (CHO-K1 [3]; [29]) of 2% and a micronucleus frequency (CHO-K1 [3]; [30]) of 1.35%. It also gave a micronucleus frequency (CHO-K1 [3]; [31]) of 1.6%, a micronucleus frequency (CHO-K1 [3]; [32]) of 1.2% and a micronucleus frequency (CHO-K1 [3]; [33]) of 1.64%. It also gave a micronucleus frequency (CHO-K1 [3]; [34]) of 1.22%, a micronucleus frequency (CHO-K1 [3]; [35]) of 2.02% and a micronucleus frequency (CHO-K1 [3]; [36]) of 1.26%. It also gave a micronucleus frequency (CHO-K1 [3]; [37]) of 2.06%, a micronucleus frequency (CHO-K1 [3]; [38]) of 1.26% and a micronucleus frequency (CHO-K1 [3]; [39]) of 2.56%.
